# Test results as given in the supplement of paper PMC8728848.
# The full list was thinned out, with the strongest signals kept by preference.
# Tests used:
# Assay in all cases: glycan array binding signal (z-score within array); higher = stronger binding
# Details in all cases: glycan notation: IUPAC condensed, linker removed
# [1] = tested on: Man(a1-3)[Man(a1-6)]Man(b1-4)GlcNAc(b1-4)GlcNAc
# Method in brief: (§1)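 Negative Z-scores can be read as non-binding. The Z-score is calculated within each array and then averaged across arrays of one protein sequence at different concentrations or buffers and across linkers. Arrays, 3228 in all, were curated from the Consortium for Functional Glycomics database and kept only where the protein sequence was available.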
# [2] = tested on: Neu5Ac(a2-3)Gal(b1-3)GalNAc6S
# Method in brief: as §1
# [3] = tested on: Man(a1-3)[Man(a1-6)]Man(b1-4)GlcNAc(b1-4)[Fuc(a1-6)]GlcNAc
# Method in brief: as §1
# Man(b1-4)GlcNAc = tested on: Man(b1-4)GlcNAc
# Method in brief: as §1
# [4] = tested on: Neu5Ac(a2-3)Gal(b1-3)GalNAc(b1-3)Gal(b1-4)GlcNAc
# Method in brief: as §1
# [5] = tested on: Neu5Ac(a2-3)Gal(b1-3)GalNAc
# Method in brief: as §1
# [6] = tested on: Neu5Ac(a2-3)Gal(b1-3)GlcNAc(b1-2)Man(a1-3)[Neu5Ac(a2-3)Gal(b1-3)GlcNAc(b1-2)Man(a1-6)]Man(b1-4)GlcNAc(b1-4)GlcNAc
# Method in brief: as §1
substance,measurement,setting,value
VWF (Homo sapiens) (chain not printed),glycan array binding signal (z-score),[1],-0.243
M-Ficolin G221F (Homo sapiens) (chain not printed),glycan array binding signal (z-score),[1],-0.155
same,glycan array binding signal (z-score),[2],-0.191
Meso764 (Homo sapiens) (chain not printed),glycan array binding signal (z-score),[3],-0.905
same,glycan array binding signal (z-score),Man(b1-4)GlcNAc,-0.215
same,glycan array binding signal (z-score),[4],-0.572
Gal 3 (Homo sapiens) (chain not printed),glycan array binding signal (z-score),Man(b1-4)GlcNAc,-0.255
M-Ficolin Y271F (Homo sapiens) (chain not printed),glycan array binding signal (z-score),[2],0.159
STIM-3 (Mus musculus) (chain not printed),glycan array binding signal (z-score),[5],0.549
CLEC-2 (Homo sapiens) (chain not printed),glycan array binding signal (z-score),[5],0.075
M-Ficolin A256V (Homo sapiens) (chain not printed),glycan array binding signal (z-score),[6],-0.178
Thrombomodulin Extracellular (Homo sapiens) (chain not printed),glycan array binding signal (z-score),[6],-0.014
